# Source: PMC4336329 (PLoS ONE, 2015)
# The whole screen tested about 310,000 compounds, of which about 2,200 (0.71%) showed an effect of 50% or more. Effects have a minus sign here. The list shows a part of the results.
# Target: human ether-à-go-go-related gene (hERG) potassium channel (human, UniProt Q12809)
# Test: primary screen, population patch clamp on CHO cells stably expressing hERG
# human ether-à-go-go-related gene (hERG) potassium channel, sequence (Q12809 whole entry, looked up): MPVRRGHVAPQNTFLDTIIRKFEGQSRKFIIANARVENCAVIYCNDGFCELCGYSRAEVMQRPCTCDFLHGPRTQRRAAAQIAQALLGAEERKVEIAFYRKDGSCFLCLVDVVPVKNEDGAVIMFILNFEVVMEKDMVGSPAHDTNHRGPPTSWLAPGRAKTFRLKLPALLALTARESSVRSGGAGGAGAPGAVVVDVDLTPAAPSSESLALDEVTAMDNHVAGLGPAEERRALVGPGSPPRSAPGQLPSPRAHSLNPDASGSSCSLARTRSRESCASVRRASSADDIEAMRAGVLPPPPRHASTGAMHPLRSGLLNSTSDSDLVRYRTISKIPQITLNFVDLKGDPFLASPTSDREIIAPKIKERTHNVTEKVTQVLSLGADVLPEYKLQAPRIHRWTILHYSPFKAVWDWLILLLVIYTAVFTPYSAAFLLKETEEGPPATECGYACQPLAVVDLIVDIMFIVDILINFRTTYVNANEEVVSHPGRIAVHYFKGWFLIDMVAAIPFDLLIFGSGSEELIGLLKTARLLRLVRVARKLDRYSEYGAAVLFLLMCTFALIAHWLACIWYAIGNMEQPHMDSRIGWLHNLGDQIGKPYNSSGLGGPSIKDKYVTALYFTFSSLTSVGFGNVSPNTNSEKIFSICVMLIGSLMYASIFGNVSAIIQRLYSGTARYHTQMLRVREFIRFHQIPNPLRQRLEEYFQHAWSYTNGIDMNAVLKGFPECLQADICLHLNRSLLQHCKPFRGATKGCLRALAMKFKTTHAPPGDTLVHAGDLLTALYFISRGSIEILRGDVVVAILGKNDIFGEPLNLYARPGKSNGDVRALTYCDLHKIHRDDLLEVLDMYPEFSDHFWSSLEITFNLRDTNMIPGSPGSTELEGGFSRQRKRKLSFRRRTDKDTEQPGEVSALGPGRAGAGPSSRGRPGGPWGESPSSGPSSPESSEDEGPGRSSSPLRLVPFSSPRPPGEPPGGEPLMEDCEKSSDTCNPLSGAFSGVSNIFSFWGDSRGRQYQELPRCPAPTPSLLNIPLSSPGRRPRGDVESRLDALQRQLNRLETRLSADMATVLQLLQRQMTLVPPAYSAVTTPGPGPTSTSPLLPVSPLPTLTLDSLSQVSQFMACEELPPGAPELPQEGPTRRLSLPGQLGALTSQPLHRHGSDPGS
row,Compound,"hERG current change (%, negative = inhibition) at 1uM [%]"
1,O=C(CSc1nc(O)c(C2CCCCC2)c(=O)[nH]1)N1CCOCC1,11.1
2,COC(=O)c1cc(NC(=O)c2c(Cl)nc3sccn23)cc(C(=O)OC)c1,17.3
3,O=C(NCCCN1CCOCC1)c1ccc2c(c1)N(Cc1c(F)cccc1Cl)C(=O)CS2,-0.0804
4,O=C(NCC(=O)N(CC1CCCO1)C1(C(=O)NC2CCCCC2)CCCCC1)c1ccccc1 (centres unmarked),5.09
5,CCOC(=O)c1cccc(-[n+]2c(-c3ccccc3)cc(-c3ccccc3)cc2-c2ccccc2)c1.[O-][Cl+3]([O-])([O-])[O-],-12.7
6,Cc1ccccc1S(=O)(=O)Cc1ccc(C(=O)O)o1,13.1
7,CCCCCOP(=O)(c1ccccc1)c1ccccc1,-4.96
8,Cc1cc(=O)n(Cc2ccccc2)c2ccccc12,12.2
9,Cc1cccc2c1cnn2C(=O)CCC(=O)N1CC(C)CC(C)C1 (centres unmarked),3.11
10,O=C(O)CSc1ncnc2scc(-c3ccc(Br)cc3)c12,-1.58
11,CCC(C)(C)NC(=O)C(c1cccn1C)N(C(=O)Cn1nnc2ccccc21)c1ccc(NC(C)=O)cc1 (centres unmarked),4.96
12,C=CCN1C(=O)C(CC(=O)Nc2ccccc2)SC1=Nc1c(C)n(C)n(-c2ccccc2)c1=O (centres unmarked),9.45
13,COc1cc([N+](=O)[O-])ccc1NC(=O)COC(=O)C=C(C)C,6.05
14,COCCCN1C(=O)/C(=C/c2ccc(CNS(=O)(=O)c3ccccc3)o2)C(C(=O)OC)=C1C,8.3
15,Cc1ccc(CSCc2ccc(C(=O)NCCC(C)C)o2)cc1,13.4
16,O=C(NC1c2ccccc2-c2ccccc21)N1CCOCC1,-7.28
17,CCOc1ccccc1C(=O)NCc1ccc2c(c1)OCO2,-0.201
18,COC(=O)c1cnn(-c2ccc(F)cc2F)c1/C=N/NC(=S)NC(C)(C)C,11.7
19,O=C(COc1ccc(Cl)cc1Cl)NCCCNC(=O)c1cnccn1,-19.9

row,Compound,"hERG current change (%, negative = inhibition) at 1uM [%]"
1,O=C(Nc1ccccc1)C(Cl)C(=O)c1ccccc1 (centres unmarked),12.2
2,CC1=CCC(C(=O)O)(C(=O)N/N=C/c2cccs2)C(c2ccc(F)cc2)C1 (centres unmarked),0.847
3,CCc1nnc(NC(=O)CCC(=O)N2CCN(S(=O)(=O)c3ccc(OC)cc3)CC2)s1,15.1
4,O=C(CN1C(=O)CCS(=O)(=O)c2ccccc21)Nc1ccc(F)cc1,9.63
5,CCOC(=O)c1c(CN(CC)CC)oc2cc(Br)c(O)cc12,-59.5
6,CN(Cc1cn(C)nc1-c1ccc(Oc2ccccc2)cc1)C1CCOC1 (centres unmarked),9.11
7,CCC(CC)NC(=O)Cc1ccc(F)cc1,13
8,O=C(Nc1ccc(Oc2cccnc2)cc1)C1CCN(Cc2ccccc2)CC1,-16.1
9,CC(C)(C)NC(=O)NC(=O)COC(=O)c1cccc(OC(F)F)c1,1.51
10,C=CCSc1nnc(-c2cc3c(s2)-c2ccccc2CC3)o1,1.84
11,Cc1cccc2sc(NC(=O)CN3C(=O)C4CC=CCC4C3=O)nc12 (centres unmarked),7.46
12,COc1cccc(-n2c(=O)c3sccc3n(CC(=O)NCC3CCCO3)c2=O)c1 (centres unmarked),12.2
13,Cc1cc(C)c(CSc2nnnn2-c2ccc(C(=O)O)cc2)c(C)c1,9.74
14,COc1cc(C)c(Cl)cc1S(=O)(=O)N1CCSC1,11
15,N/C(Cc1ccc(Cl)cc1Cl)=N\OC(=O)c1ccc(Br)o1,19.5
16,CN1CCN(C(=O)C2=C[C@H](c3ccc4c(c3)OCO4)C[C@H](OCc3ccc(CO)cc3)O2)CC1,-17.2
17,CC(=O)N(C)c1ccc(NC(=O)Nc2ccc(C)c(C)c2)cc1,3.57
18,CC(=O)OCCN(Cc1ccccc1)Cc1ccc2c(c1)OCO2,1.68
19,CCOc1ccc(S(=O)(=O)n2cnc(C)c2)cc1,11.7

row,Compound,"hERG current change (%, negative = inhibition) at 1uM [%]"
1,COc1ccc(NC(=O)CN(C)S(=O)(=O)c2cccc3nsnc23)cc1,-33.8
2,COc1ccc(N(CC(=O)Nc2cccc(SC)c2)S(C)(=O)=O)cc1Cl,-7.88
3,Cc1c(C(=O)NCc2cccnc2)oc2c1C(=O)CC(C)(C)C2,5.94
4,CCOCCCN(C(=O)Cn1nnc(-c2ccc(OC)c(OC)c2)n1)C(CC)C(=O)NC1CCCC1 (centres unmarked),-0.995
5,COCCc1nnc(NC(=O)C23CC4CC(CC(C4)C2)C3)s1,15.9
6,COc1cc(NC(=O)CN2C3CCC2CC(O)(c2cccnc2)C3)cc(OC)c1 (centres unmarked),-41.3
7,C/C(Cl)=C/Cn1c(N2CCCC2)nc2c1c(=O)n(C)c(=O)n2C,10.5
8,O=C1NC(=S)N(c2cccc(Cl)c2)C12CCCCC2,15.2
9,CCc1cccc(NC(=O)CSc2nc3c(c(=O)[nH]2)CCCC3)c1,16.7
10,O=C(CSc1nc2ccc(Cl)cc2[nH]1)NCCc1ccccc1,10.7
11,CSc1ccc(C2C(C#N)=C(N)N(c3ccccc3)C3=C2C(=O)CCC3)cc1 (centres unmarked),5.55
12,CC(=O)OCC(OC(C)=O)C(OC(C)=O)C(OC(C)=O)C(=O)Nc1ccc(C)cc1C (centres unmarked),2.91
13,CCC(C)(C)n1nnnc1C(C(C)C)N1CCSCC1 (centres unmarked),-23.9
14,CCc1ccc(-n2c(SCC(=O)Nc3cccc(S(=O)(=O)NC4=NCCCCC4)c3)nc3ccccc3c2=O)cc1,22
15,Br.O=C(CN(Cc1ccccc1)C1=NCCS1)c1ccc(Cl)cc1,1.83
16,Cc1ccc(S(=O)(=O)N2CCCCC2)cc1NC(=O)COC(=O)c1ccc(O)cc1,7.9
17,CCCOc1cccc(NC(=O)c2c(-c3ccccc3)noc2C)c1,1.02
18,CCOc1cc(CNCCO)ccc1OCC(=O)NC(C)(C)C.Cl,12.3
